According to paper PMC6425991, “Peptide Super-Agonist Enhances T-Cell Responses to Melanoma” (Frontiers in Immunology, 2019):

Columns and labels:
[1] = test system: CD8 T-cells from metastatic melanoma patients MM909.37 and MM1413.12; experiment: Peptide priming of melanoma patient CD8 T-cells, tetramer staining; format: cell-based, human; conditions: day 28, background staining of the primed line
Method: PBMCs were isolated from “buffy coats” using the SepMate protocol, as per the manufacturer's instructions ([…] Technologies, Vancouver, BC, Canada). CD8 T-cells were positively purified using anti-CD8 microbeads (Miltenyi Biotech), as per the manufacturer's instructions. […] CD8 T-cells were plated in 1 mL of priming media (as for T-cell media with 20 IU/mL of IL-2 and no IL-15) in 24 or 48 well plate at a density of 2 × 10^6 or 4 × 10^6 alongside peptide pulsed cells at a density of 3 × 10^6 and 8 × 10^6 per well, respectively. […] These T-cell “primings” were fed with fresh medium tri-weekly and from day 14 onwards supplemented with 25 ng/mL of IL-15.
Soluble biotinylated peptide-MHC monomers were produced in-house as previously described ([20]). Tetramers were assembled and 5 × 10^4 T-cells stained with 0.5 μg (10 μg/mL) of tetramer, with respect to pMHC component ([17]). An optimal tetramer staining protocol using the protein kinase inhibitor, Dasatinib ([21]), and primary unconjugated anti-PE antibody ([22]) was used as previously described ([23], [24]). Additionally, some samples were also stained with a secondary PE conjugated antibody to add further fluorescence to the tetramer stained cells ([22]).

[2] = target: HLA A2 (Homo sapiens, UniProt P04439, D140Y/D185E/D98H/E176V/E277Q/G131W/G231S/I119V/I121R/I166T/I218V/L300P/N151K/N90K/P208A/P217A/Q86G/Q94H/R138H/R169H); conditions: crystal structure of the binary pHLA complex

For “MTSAIGILPV [altered peptide ligand super-agonist designed from CPL screen of clone ST8.24]”, the “percentage of irrelevant (ALWGPDPAAA) tetramer+ cells” value ([1]; patient MM909.37) was 0.01%, the “percentage of irrelevant (ALWGPDPAAA) tetramer+ cells” value ([1]; patient MM1413.12) was 0.002% and the “total number of contacts between the peptide and HLA-binding groove” value [2] was 136.
